Out of some 150,000 compounds screened, about 6,500 (4.3%) were called active. Inconclusive results, whose numbers are uncertain, are shown with a selection of clear calls. The call rests on the fitted dose curve; in most records, active means well fitted inhibition curve with a large enough effect (not every such curve was filed as active); inconclusive means small, poorly fitted or top-dose-only effect, or another doubt; inactive means no such curve, though single readings can be large or run the other way. No potency is given beside an inconclusive call; the fits are too rough.
These compounds were tested against 15-hydroxyprostaglandin dehydrogenase [NAD(+)] (Homo sapiens) (UniProt P15428) (assay: qHTS Assay for Inhibitors of HPGD (15-Hydroxyprostaglandin Dehydrogenase)). Conditions: purified HPGD, NADH fluorescence kinetic, PGE2 substrate; activity change, negative = inhibition: stronger effect = lower value.
Procedure, shortened: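 NADH formation kinetics: reaction with 30 uM PGE2 and 1 mM NAD+ (final), 20 nM enzyme, Tris-HCl pH 8 with Tween 20, after 15 min compound preincubation at room temperature. Fluorescence change, last versus first of five reads.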
On the % scale 0 is the no-effect control and ±100 the full control effect; potency means the concentration at half of the fitted maximal effect; tags describe the fitted curve by direction and shape.

UniProt P15428, sequence (P15428 whole entry, looked up): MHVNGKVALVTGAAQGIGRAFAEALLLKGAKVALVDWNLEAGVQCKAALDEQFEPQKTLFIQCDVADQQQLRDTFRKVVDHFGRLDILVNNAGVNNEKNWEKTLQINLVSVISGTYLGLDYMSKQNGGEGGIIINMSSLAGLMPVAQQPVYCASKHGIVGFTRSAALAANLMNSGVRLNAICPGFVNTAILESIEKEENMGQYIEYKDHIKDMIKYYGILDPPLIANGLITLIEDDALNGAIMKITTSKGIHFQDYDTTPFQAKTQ

**Q.** For `COC(=O)C1CN(C#N)N(c2ccc(Cl)cc2)C12c1ccccc1-c1ccccc12` (centres undefined), which Potency is on record?
**A.** Its Potency is active: 14.1 µM.

**Q.** With `Cc1cccc(N2C(=O)NC(=O)/C(=C\c3ccc4c(c3)CCCN4Cc3ccccc3)C2=O)c1` as the compound, how does the Potency read?
**A.** Its Potency is active: 7.08 µM.

**Q.** For `C=CCc1c(C)[nH]c(=S)c(C#N)c1C`, which Potency is on record?
**A.** Its Potency is active: 3.98 µM.

**Q.** How did the activity change, negative = inhibition turn out when `Oc1ccc2c3c1O[C@H]1c4[nH]c5ccccc5c4C[C@]4(O)[C@H](C2)N(CC2CC2)CC[C@@]314` was run?
**A.** The activity change, negative = inhibition was inactive: -6.84%.

**Q.** With `O=C(NC1CN2CCC1CC2)c1ccc(-c2ccc([N+](=O)[O-])cc2)o1` (centres undefined) as the compound, how does the activity change, negative = inhibition read?
**A.** The activity change, negative = inhibition was inactive: -28.9%.

**Q.** With `COP(=O)(OC)c1nc(-c2cccc3ccccc23)oc1N1CCOCC1` as the compound, how does the Potency read?
**A.** The Potency was inconclusive [inhibitor, partial curve].

**Q.** For `COCCCn1c(N)c(C(=O)OCCOC)c2nc3ccccc3nc21`, which Potency is on record?
**A.** Its Potency is inconclusive [inhibitor, partial curve].

**Q.** `COCCNC(=O)c1c(NC(=O)c2ccc(Br)o2)n(Cc2ccccc2)c2nc3ccccc3nc12` was tested. Which Potency did it give?
**A.** The Potency was inconclusive [inhibitor, partial curve].

**Q.** For `CCN1C(=O)/C(=C/c2ccc3c(c2)CCN3CCCCl)C(=O)NC1=S`, which Potency is on record?
**A.** Its Potency is active: 7.94 µM.

**Q.** How did the Potency turn out when `O=C(O)C1Sc2[nH]c(=O)sc2C2c3cc(Cl)ccc3OC(=O)C12` (centres undefined) was run?
**A.** The Potency was inconclusive [inhibitor, single point].

**Q.** With `CN(C)[C@@H]1C(=O)C(C(N)=O)=C(O)[C@@]2(O)C(=O)C3=C(O)c4c(O)cccc4[C@@](C)(O)[C@H]3[C@H](O)[C@@H]12` as the compound, how does the Potency read?
**A.** Its Potency is active: 7.08 µM.

**Q.** How did the Potency turn out when `C=CCNC(=O)c1c(N)n(Cc2ccco2)c2nc3ccccc3nc12` was run?
**A.** The Potency was inconclusive [inhibitor, full curve].

**Q.** How did the Potency turn out when `C/C(=N\NC(=S)Nc1ccccc1)c1c(O)n(C)c(=O)n(C)c1=O` was run?
**A.** The Potency was inconclusive [inhibitor, partial curve].

**Q.** Which Potency does the source give for `CCOc1cc(-c2ccc(N)c(OCC)c2)ccc1N` here?
**A.** Its Potency is inconclusive [inhibitor, partial curve].

**Q.** How did the Potency turn out when `c1ccc(N2CC[C@@]3(CCCNC3)C2)nc1` was run?
**A.** Its Potency is inconclusive [inhibitor, partial curve].

**Q.** Which activity change, negative = inhibition does the source give for `CCCN[C@@H]1CCc2c(OC)cccc2[C@@H]1C` here?
**A.** Its activity change, negative = inhibition is inactive: -4.18%.

**Q.** With `CCC1/C=C/C=CCC(C)C(O)[C@@](C)(O)C(=O)C(C)C(O)C(C)C(=O)C(C)C(O)C(C)C=CC(=O)O[C@H]2C(C)C(CC1)O[C@]1(CCC(C)C(CC(C)O)O1)C2C` (some centres undefined) as the compound, how does the activity change, negative = inhibition read?
**A.** The activity change, negative = inhibition was inactive: -21.3%.

**Q.** Which Potency does the source give for `Cc1cccc2c3c(ccc12)C1=C(C(=O)C3=O)C(C)CO1` (centres undefined) here?
**A.** Its Potency is active: 17.8 µM.

**Q.** Which activity change, negative = inhibition does the source give for `COc1ccccc1-n1c(-c2ccoc2)nc2ccccc2c1=O` here?
**A.** Its activity change, negative = inhibition is inactive: -10.6%.

From PubChem BioAssay AID894 (National Center for Advancing Translational Sciences (NCATS), 2007)
